Results as given in the supplement of paper PMC11417369.
Some of the results follow.

These sequences were tested on PfSIP2 AP2 domain 1 (GST-tagged) (assay: gcPBM binding intensity (ln(normalized median fluorescence intensity)); higher = stronger DNA binding).
Procedure, shortened: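 Probes on an Agilent 4 × 180k array were primer-extended, double-stranded and 36 bp long, taken from intergenic genomic regions, with negative controls added. GST-tagged P. falciparum DNA-binding domains from E. coli, about 25 μg on average, were applied to the array for 1 h in 1× PBS containing 1% milk, 0.2 mg/ml BSA, 0.5% salmon testes DNA and 0.03% Triton X-100. Binding intensity, obtained after Alexa488 anti-GST antibody detection and a 488 nm scan, is the highest Masliner-normalised natural-log median intensity across replicate spots of either probe orientation.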

Row | Sequence | gcPBM binding intensity (ln)
1 | TTCATTTACCCTTATTAACACACAAAATATAATACG [CACACA_site8821] | 7.33
2 | TGTATATTATAAGATAGTACATATATATAATATATA [XGTACX_site1297] | 7.09
3 | ATAAATATCATATATATACACACGTAATACATAATA [CACACA_site4001] | 7.13
4 | AAGGAGATAATTTATTGTACATATAATAAATGAACA [XGTACX_site6252] | 7.09
5 | TCTTACAAAAAAAAAAAAAAATAAAATAAAATATAT [CACACA_negctrl_site1575] | 6.7
6 | TTAATATTATGTTAAAGTACTTTATATATATATAAT [XGTACX_site2646] | 7.05
7 | ATATTAAGAATATATACACACATAAGTATTGTATAT [CACACA_site6110] | 6.83
8 | TATTCGTGCAATAGTAGTACACTTATAAATTATTCT [XGTACX_site4899] | 7.69
9 | ATAAAATAAAATAAATGTACACGAAAAAAAATATTT [XGTACX_site3747] | 7.25
10 | TTACTTGTTTATTTTATTTTTTTTTTTTTTTTGTTA [TGCATGCA_negctrl_site266] | 6.78
11 | AGTGAGAAATACATAATAATACATTATGTGCATATT [XGTACX_negctrl_site247] | 7.23
12 | GTACACATATATATATATATATATATATATATATTA [CACACA_negctrl_site1580] | 7.86
13 | AAGAATATTTTTTTCTGTACATATAATTTATATACG [XGTACX_site5801] | 6.93
14 | AACGAAAGAAAAAAAGCACACACAGTTTTGAGCAAT [CACACA_site8658] | 6.66
15 | ACCATGATAAATGTATTAAATGTATCATAACCTATG [CACACA_negctrl_site513] | 6.82
16 | ATCCGTGTCTGAAATACACACATGATAATGTGAATG [CACACA_site8210] | 6.91
17 | ATGGAAACAAGCATCACACATATAAATATATATATA [CACACA_site4979] | 9.04
18 | CAAACATTTTAATGTACACACACCCACAGACAAACA [CACACA_site5522] | 7.51
19 | TTCTTTTTGAAATATTAACACACATTTTGTTAATTA [CACACA_site9337] | 6.96

Row | Sequence | gcPBM binding intensity (ln)
20 | AGGAATTTATAAAATTGTACTTTTAATTACCTACAG [XGTACX_site3153] | 7.03
21 | AATTTTCTACAAATGTGTACTAAATAAAATATTACT [XGTACX_site7175] | 7.1
22 | TTTTTCTGTTCTTTTTGTACTTAAATATATTTATTT [XGTACX_site5658] | 7.01
23 | ACAATGAGGATATATACACACATACATTAAAAAAAT [CACACA_site6955] | 7.07
24 | ATGTGTGTATTTTATAGTACAGTTACAAGCATTTTT [XGTACX_site6351] | 7.34
25 | AAAAAAGAAAAAAGGACACACATAAATATACACCCG [CACACA_site5590] | 7
26 | AGAATATAATTTTTATGTACATATATTAAATATATT [XGTACX_site8521] | 6.95
27 | CACAAAAATAAACACACACACATATATATATATATA [CACACA_site4704] | 9.37
28 | TCATAAAATATGTTTTGTACATAAAATTAAACAAGT [XGTACX_site1763] | 6.97
29 | AAATAAGAGAAAATATGTACATACATATATTTATAT [XGTACX_site6210] | 6.99
30 | AAATATAAATAAAGATGTACATTATCTATATGTGAT [XGTACX_site4863] | 7.01
31 | AATACGTTTATATATTGTACGTTATATATATATATA [XGTACX_site7452] | 9.42
32 | TAAGTTCGAATTACTTAAATATTGATTTTTTTAAAA [TGCATGCA_negctrl_site114] | 6.55
33 | AAGAAAAGCAAACAAGTGCATAATAACAAAAAAAAT [GTGCAC_site9725] | 8.52
34 | TATTTATTTATAAACACACAAATATTTTTATTTATA [CACACA_site6889] | 6.8
35 | TTTTTTTTTTTTAGAGTACACACTTTTTTACATTTA [CACACA_site3836] | 6.96
36 | GTTGAAAATACAGAACGTACACGTTTGCCATATTGT [XGTACX_site2254] | 6.87
37 | TATGAAATGCTCCAATCACACATGAATGTAATATAT [CACACA_site5458] | 6.74
38 | ATATGATTTATAAAGTGTACCTTATTATAAGAAACA [XGTACX_site7914] | 7.1

Row | Sequence | gcPBM binding intensity (ln)
39 | ACTTTTATTATTTATATACACACTTGCTGAAATGTT [CACACA_site3637] | 7.46
40 | AGTTATAAAATATTTGCATGTAAATATATTATCTAT [TGCATGCA_site1015] | 6.87
41 | ATATTTATATTTATGTGTACATATGAAATAATTATT [XGTACX_site7765] | 7.26
42 | TAATATATTATGAGGGGTACATAATATGGTTTATTG [XGTACX_site8301] | 7.12
43 | CTAAGAAGTATTTACACACCAACAAGGCGAAAAAAA [CACACA_site2945] | 6.92
44 | ATATCTTATATCTTCACACATACACAATAAATACAT [CACACA_site5028] | 7.24
45 | AATGTATTCTCTCATGCACACTTTCTTTAAGGGACC [CACACA_site5245] | 8.45
46 | TAAGATGATATAGACTGTACATATTGAACTTACAAG [XGTACX_site4290] | 6.91
47 | ATTCATATTAAATATATATATATATATATATATATA [CACACA_negctrl_site484] | 9.58
48 | TAATATATTAATTTTTGTACTTAATTATATGTTTTT [XGTACX_site5654] | 6.75
49 | GTTTTTAAATATGCCATACACACTACTATATAATAA [CACACA_site1927] | 7.16
50 | GAAGAAAAAGAAAAAAGTACATATATTATATTATAA [XGTACX_site7870] | 6.73
51 | TTCTAAATTAATAATACACACTTGCTAAAATCATTA [CACACA_site5733] | 6.75
52 | TTTATTTTATCATTTGCACACGCACCCCCACATAAA [CACACA_site8007] | 11.5
53 | ATTCTCCATGTTTGATGTACTCATATGACGACGGAG [XGTACX_site4923] | 7.21
54 | ATATAAATAACGTGTACACACATATGTATTTATATA [CACACA_site6520] | 7.4
55 | TTCTTATATTGTACAGTACACACCTTTATAATGTTA [CACACA_site7953] | 7.49
56 | AATATTTCTATATGAACATGCAATGTATCTTTTTAT [TGCATGCA_site738] | 6.77
